# Measured values published in the BET-seq Pho4 binding data (Le et al. 2018).
# The other results are listed elsewhere or left out. Values were computed here from the reads of four pooled replicates and scatter widely.
# Target: T1, Pho4 (S. cerevisiae) (UniProt P07270)
# T1 sequence: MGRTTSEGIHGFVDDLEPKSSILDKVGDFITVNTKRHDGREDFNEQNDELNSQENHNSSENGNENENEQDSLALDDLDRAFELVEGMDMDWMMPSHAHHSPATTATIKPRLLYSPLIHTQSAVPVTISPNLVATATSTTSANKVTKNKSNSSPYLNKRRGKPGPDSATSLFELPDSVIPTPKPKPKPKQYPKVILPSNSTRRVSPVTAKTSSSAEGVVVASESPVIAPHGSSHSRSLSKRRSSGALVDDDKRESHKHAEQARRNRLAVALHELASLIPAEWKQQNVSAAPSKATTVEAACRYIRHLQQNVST
# Test: relative binding free energy (BET-seq); higher = weaker binding
# Settings: reference: library average
row,Sequence,relative binding free energy [kcal/mol]
1,TGGTTCACGTGTTCCT,0.34
2,TACTTCACGTGGATTG,0.23
3,TAGAGCACGTGGGTGA,-0.25
4,GTCTTCACGTGCTGGG,0.34
5,TAGATCACGTGTTAAT,0.24
6,TGTTTCACGTGGTTAC,0.22
7,CGAAGCACGTGGGTAG,-0.21
8,TGCTGCACGTGGCAGG,-0.08
9,CGGATCACGTGAGGTG,0.29
10,AGAAGCACGTGAATGG,0.21
11,ATTGTCACGTGCGTAA,-0.09
12,ACAGACACGTGGTGGT,-0.07
13,TATTACACGTGAGTAA,0.29
14,TTTAACACGTGAGTAT,0.28
15,TAGGGCACGTGATCTG,-0.05
16,TGGTACACGTGAAATG,0.22
17,TGTCTCACGTGATGGA,0.31
18,ATCTGCACGTGTGTGA,0.04
19,GTGTTCACGTGCTGTG,0.3
20,AAAAGCACGTGTGGAG,0.19
21,GGGGTCACGTGCCAGG,0.03
22,CTCGGCACGTGGGTCG,-0.13
23,AGGTGCACGTGGTCGA,-0.25
24,CGATGCACGTGGGTGG,-0.28
25,TGGGTCACGTGTTACT,0.13

row,Sequence,relative binding free energy [kcal/mol]
1,GAGGGCACGTGGAAAG,0.1
2,GATGTCACGTGTAGCT,0.12
3,ATGTGCACGTGCTTGG,-0.01
4,GTTGACACGTGGCAGT,-0.05
5,CATTGCACGTGATTTG,0.15
6,AAACACACGTGGTGGT,0.1
7,GGTTTCACGTGGTTAA,0.23
8,TATTTCACGTGAGGGT,0.33
9,TGTTTCACGTGGTCGG,0.24
10,GGTGTCACGTGTGAAG,0.06
11,GCGCTCACGTGGTTGT,0.17
12,TCTATCACGTGGGTAT,0.05
13,CGGTTCACGTGTATTG,0.13
14,TGCCGCACGTGGGTTA,-0.09
15,TTGCTCACGTGTGTTG,0.06
16,TTTTGCACGTGCATAG,0
17,TGAGTCACGTGTGGTC,0.09
18,TTATTCACGTGTATCA,0.25
19,GGGTTCACGTGGGCCT,0.18
20,TACTGCACGTGGTCTT,-0.01
21,GGGTGCACGTGTCTAG,0.06
22,TATGGCACGTGAGTAG,0.09
23,TCGTGCACGTGCTAGG,-0.11
24,GGGCTCACGTGGAAGG,0.33
25,GTTGACACGTGAGTTG,0.34

row,Sequence,relative binding free energy [kcal/mol]
1,TATCTCACGTGCGTTG,0.15
2,AGGGTCACGTGTAGTG,0.21
3,TATTACACGTGGTGGT,0.04
4,TACGCCACGTGGGAGG,-0.13
5,ATATGCACGTGGGTTT,-0.11
6,ACGTACACGTGGTATG,-0.09
7,AGATTCACGTGGTGAG,0.04
8,GTATCCACGTGGGGTG,-0.17
9,TGTGTCACGTGTTCCA,0.15
10,TCTTCCACGTGGGGGT,-0.21
11,CTGTCCACGTGGTGTG,-0.07
12,TTTAGCACGTGAAAAT,0.18
13,GGAGTCACGTGGGTTA,0.04
14,TTTCTCACGTGGTTGA,0.2
15,GTGAGCACGTGGTATC,-0.06
16,GGTGGCACGTGGGGTC,-0.15
17,TTGAGCACGTGAGGGT,0.07
18,GGTATCACGTGGAGTT,0.2
19,AAATGCACGTGTTAGG,0.05
20,AATAGCACGTGCGGGG,-0.05
21,GGCAGCACGTGTAGGC,0.03
22,AGTCTCACGTGATTTA,0.33
23,TGCATCACGTGAAGTG,0.35
24,AGGGTCACGTGCAATT,0.1
25,GGCGGCACGTGTCTTT,0.05

row,Sequence,relative binding free energy [kcal/mol]
1,TGTGTCACGTGGTCCT,0.01
2,GGCAACACGTGGTGGG,-0.08
3,GCATTCACGTGGGTCG,0.32
4,ATACGCACGTGGGTCG,-0.16
5,GTAGGCACGTGATGCA,0.02
6,ATGTTCACGTGATTAA,0.17
7,GTTTTCACGTGTCAGA,0.22
8,TGTGACACGTGCATTT,0.06
9,GATTGCACGTGCTTGT,0.02
10,TATAACACGTGGGGTG,-0.28
11,TTTTGCACGTGGCACG,-0.08
12,TCGGGCACGTGTGCAT,-0.06
13,GGAAGCACGTGCGGTT,-0.12
14,CTTGGCACGTGGAGTA,-0.22
15,ATTGACACGTGTTGGT,0.07
16,GCGTTCACGTGTGTAT,0.18
17,GCTGGCACGTGTAATG,0.11
18,TGAGTCACGTGTCGAT,0.21
19,AGGAGCACGTGTTATA,0
20,TTGTGCACGTGTGCGA,0.03
21,TTTATCACGTGGAACG,0.31
22,CTGTACACGTGATTTT,0.09
23,TAAAGCACGTGGGCGG,-0.17
24,TTAGGCACGTGTTTGA,-0.23
25,TTCATCACGTGATGGA,0.32

row,Sequence,relative binding free energy [kcal/mol]
1,TTGAGCACGTGTGAGG,0.04
2,GTATACACGTGGGTGC,-0.09
3,TTTGACACGTGCTTTG,0.05
4,GGTACCACGTGGTTTA,-0.09
5,GGGGACACGTGATAGA,0.2
6,GTTTTCACGTGAAAAG,0.37
7,GCTGTCACGTGTAGGA,0.09
8,AGGTGCACGTGTGGGC,0.03
9,ATCGGCACGTGATATG,0.02
10,TTGGTCACGTGCAGCG,0
11,CTTGGCACGTGACGTT,-0.06
12,ACTTTCACGTGATTTG,0.27
13,GACGGCACGTGATTGT,0.18
14,GTTTACACGTGCGGCT,0.12
15,GTGTTCACGTGGTCAA,0.38
16,TAAGTCACGTGTTAAG,0.23
17,ATGGTCACGTGAGTGA,0.28
18,TTGGTCACGTGAAGAG,0.17
19,GTTCACACGTGTTGCG,0.11
20,ATTTACACGTGTTCTG,0.15
21,TTTGGCACGTGGTTAA,-0.11
22,CTATTCACGTGTTGAT,0.11
23,GAGGTCACGTGTTCTT,0.19
24,CGTTTCACGTGATGAT,0.34
25,TAATGCACGTGATATA,0.1

row,Sequence,relative binding free energy [kcal/mol]
1,GTGGCCACGTGTGTCT,-0.01
2,TATGTCACGTGATATT,0.27
3,GGTGGCACGTGGAAGG,0.09
4,TTCTTCACGTGGAGAG,0.29
5,TTTTTCACGTGACGTC,0.33
6,TTTAGCACGTGTGCCG,-0.07
7,ATAAGCACGTGCGGCG,-0.03
8,GGAGTCACGTGTCGTA,0.23
9,TGGTTCACGTGAGGTA,0.51
10,CCGGTCACGTGGTGAG,0.15
11,ATTCGCACGTGGTTAA,-0.13
12,TATGGCACGTGAGCGG,-0.02
13,TGGTACACGTGTAAGG,0.17
14,AAAGACACGTGTGGGG,0.07
15,GGGGTCACGTGCGATT,0.13
16,TATATCACGTGGTGCA,0
17,AAGGGCACGTGGTCTT,-0.29
18,AATTCCACGTGGGTTA,0.05
19,TAAGACACGTGTGTGT,-0.2
20,CGTGTCACGTGAGGAT,0.3
21,GCTTCCACGTGGGTGG,-0.01
